Results: the supplement of paper PMC11417369
Some of the results follow.

system: PfHDP1 homeodomain (GST-tagged); assay: gcPBM binding intensity (ln(normalized median fluorescence intensity)); higher = stronger DNA binding
In short: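 Binding of GST-tagged P. falciparum DNA-binding domains, expressed in E. coli and used at about 25 μg on average, was carried out for 1 h in 1× PBS containing 1% milk, 0.2 mg/ml BSA, 0.5% salmon testes DNA and 0.03% Triton X-100. The target was an Agilent 4 × 180k array of primer-extended double-stranded 36-bp intergenic genomic probes plus negative controls, read with Alexa488 anti-GST antibody at 488 nm. Binding intensity is the highest Masliner-normalised natural-log median intensity across replicate spots of either probe orientation.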

Sequence	gcPBM binding intensity (ln)
TTATTTTCAAAATGTTGTACACACAAAAAAAAAAAA [XGTACX_site3151]	6.53
TTTTTTTTTTTTTTTGCATGCAGGTTTTTACCCCTT [TGCATGCA_site381]	6.26
TATAACATTTTTTTCAAAATAGCTTTAGAAATAAAG [CACACA_negctrl_site718]	5.83
ATTTATTTTTTACATTGTACATATTTATTCCTTTTA [XGTACX_site8028]	6.81
ATATGTGGAAATAGAGCACACATATATATAATATAT [CACACA_site8194]	6.95
TATGTATATATATAAAGTACGCAAATTTATAATAAG [XGTACX_site8744]	6.78
TTTTTTTTCTTCAAGCGTACTTATTTGTAGAAAAAA [XGTACX_site1728]	6.14
AAAATACACAACATATATATATATATATATATATAT [XGTACX_negctrl_site21]	9.63
TTTTGTTTTAAAAGTACACACTTTTAATTAGATTTC [CACACA_site4788]	6.15
TGATCAATGGATTTAACACACAAAAAAAAAAAAAAA [CACACA_site3845]	6.1
TTAAAAGAAAATAACACACACAAAAAAAAAAAAAAA [CACACA_site2117]	6.44
TAAGGACTAATATTTGAACACACATATAATATATAC [CACACA_site9325]	6.46
TATATATTTGTTCACACACACACAAAAAAAAAAAAA [CACACA_site2475]	6.58
GTCATCAAGTATTAAGTGCATTAAAAATAAAATATA	9.4
CATATATATATATATATATATATATTTATTTATTTA [TGCATGCA_negctrl_site165]	7.57
TCCCTTAAAATGATATGTACATAAAAATAAAAAAAA [XGTACX_site836]	6.72
TAAATATTATAAATGATACACACTTAAAATACTCAC [CACACA_site2710]	6.43
TATAAATTTAAAATGACACACACTAAAGTTATTTAA [CACACA_site6700]	5.98
AACATAAGTAAGAATACATGCGGAAATTATATAGAA [TGCATGCA_site112]	6.99
CATACACATACACATACACACGCATAGAAACATACG [CACACA_site8666]	8.09
AATTTTTCATCAAGTTGTACAATTATTTGTTTGTTT [XGTACX_site3113]	6.63
AAATTCAGGTTATATTTTAATTTTTTTTTGTTTTTT [CACACA_negctrl_site924]	6
CAATATTTTTTATAGGGTACAAAAGATAAAAAAAAA [XGTACX_site6298]	6.8

Sequence	gcPBM binding intensity (ln)
AAAACAATAATATACTGTACATATATATAATAACAT [XGTACX_site6188]	6.75
AAAATTTTCTTTTTATGTACACATAATTTTACCGGA [XGTACX_site5276]	6.61
CATATTTGGAAACACACACACATATTTATATATATA [CACACA_site3569]	7.32
AAAAGAAAAAGAAAAACACACATAAATATAAATATA [CACACA_site1879]	6.32
TATATTTTACTCTTCACACATATACTCAATTTATAT [CACACA_site5357]	7.08
GTAATATGTATCCATACACACATACATTTTATTTGC [CACACA_site4640]	6.7
TCACATATGTTCCATTGTACTTGTAGTAATTTTTTC [XGTACX_site6473]	6.5
ATAAAATGAAATATATGTACGCATCACTTGTTGAAC [XGTACX_site4530]	6.54
AGAAAAGGACATATATGTACTTATCAATATAGAAAC [XGTACX_site1042]	6.5
AAAAAAAAAAAAAAAACATGCAAAATAATATATATA [TGCATGCA_site68]	6.8
GTACATACATAAAACACACACATATATATATATATA [CACACA_site1826]	9.31
TGCTAATAATTATTTGTTTAGCAACAAAAAAAAAAA [CACACA_negctrl_site1541]	6.06
TAATTAAAAAATAAAAAAAAAAAAAATTAAAACAAA [CACACA_negctrl_site500]	6.08
TTCTTTTTAATTTATTTTTTCTTATAACAAGAAAAC [CACACA_negctrl_site201]	6.74
CATACACGCGGACACACACACACACGCATATATAAC [CACACA_site6427]	7.14
ACATATATATATATATAAATATATATGTATGTATTT [XGTACX_negctrl_site237]	6.52
ATTATATTTGAATGGTGTACTATAATAATGTAGTTT [XGTACX_site8069]	6.45
GAATAAATTAAATTCACACATAAAATACAAAATACA [CACACA_site5495]	6.86
CTTATATTAATTATTACACACATATATATAAATGCA [CACACA_site770]	6.79
AAAGAAAATAGGTGTACACATAATAAATACAGCTAT [CACACA_site5917]	7.25
AAAATAATATTTAATACACACATAATTACAATATAA [CACACA_site6510]	6.52
TTATTACGAACTCTGCAACATATATAAATAAATAAA [CACACA_negctrl_site44]	6.86
